Source: PubChem BioAssay AID360 (National Center for Advancing Translational Sciences (NCATS), 2006)
Among all 48,000 compounds or so, about 550 (1.1%) were called active. Inconclusive means that the source gave no clear call. Such entries were picked first, then a sample of the others. No stated cut-off is given here; in the data, active means potency below about 15 µM; inconclusive means mostly about 16 µM to 33 µM; inactive means weaker than that. No potency is given beside an inconclusive call; the fits are too rough.
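Further: the screen sought inhibitors.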
Potency means the concentration at half of the fitted maximal effect.

The compounds below were run against Lysosomal acid glucosylceramidase (Homo sapiens) (UniProt P04062) (assay: Glucocerebrosidase). Conditions: purified enzyme, resorufin glucoside fluorescence (screen aimed at inhibitors), 20 min.
Sequence of UniProt P04062 (P04062 whole entry, looked up): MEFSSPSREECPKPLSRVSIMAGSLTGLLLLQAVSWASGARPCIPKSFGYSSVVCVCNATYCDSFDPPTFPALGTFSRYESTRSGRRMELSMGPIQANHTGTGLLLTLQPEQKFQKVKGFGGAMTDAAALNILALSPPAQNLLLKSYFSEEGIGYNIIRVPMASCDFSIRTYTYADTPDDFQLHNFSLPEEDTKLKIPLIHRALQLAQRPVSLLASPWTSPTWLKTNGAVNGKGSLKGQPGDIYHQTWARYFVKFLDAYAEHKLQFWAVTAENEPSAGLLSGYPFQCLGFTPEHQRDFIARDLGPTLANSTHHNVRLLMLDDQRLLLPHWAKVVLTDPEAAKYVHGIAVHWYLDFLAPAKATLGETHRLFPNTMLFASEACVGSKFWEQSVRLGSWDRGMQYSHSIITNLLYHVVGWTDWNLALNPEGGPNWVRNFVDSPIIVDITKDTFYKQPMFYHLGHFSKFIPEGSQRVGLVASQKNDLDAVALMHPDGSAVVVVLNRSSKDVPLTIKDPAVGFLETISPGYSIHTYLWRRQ
How it was run: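 Normal human glucocerebrosidase (0.2 nM final) was assayed with resorufin β-D-glucopyranoside (30 uM final) in 50mM citric acid/KH2PO4, 10mM sodium taurocholate, 0.01% tween-20, pH 5.9. Compounds were titrated; fluorescence (Ex 548, Em 600) read after 20 min at RT.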
For O=c1cc(CSc2nnc(COc3ccc(Cl)cc3)o2)c2ccccc2[nH]1, the Potency was inconclusive [decreasing]. In the case of COc1ccc(CNC(=O)C(C#N)c2nc3ccccc3nc2N2CCN(C)CC2)cc1 (stereo not given), the Potency is reported as inconclusive [decreasing]. With CCOc1cccc(NC(=O)C2CCCN(S(=O)(=O)c3ccc(-n4cnnn4)cc3)C2)c1 (stereo not given) the Potency was inconclusive [decreasing]. For O=C(NCCN1CCCC1)c1cc(-c2ccncc2)nc2ccc(S(=O)(=O)N3CCOCC3)cc12, the Potency was inactive: > 76.9 µM. CCOC(=O)c1cccc(NC(=O)CCc2nc(-c3ccccc3F)no2)c1 was tested, and the Potency was inconclusive [increasing]. With CCCCOC(=O)CSC1=C(C#N)C(c2ccccc2OCC)C(C#N)C(=O)N1 (stereo not given) the Potency was inconclusive [decreasing]. COc1ccccc1Cn1cnc2cccnc21 was tested, and the Potency was inactive: > 76.9 µM. With Cc1ccc(-n2nnnc2SCC(=O)Nc2cccc(NC(=O)c3ccco3)c2)cc1C the Potency was inconclusive [decreasing]. In the case of Cc1ccccc1S(=O)(=O)Cc1ccc(C(=O)NCc2cccnc2)o1, the Potency is reported as inactive: > 76.9 µM. Cc1cccc(N/C(N)=N/c2nc3c(c(=O)[nH]2)CCCC3)c1 was tested, and the Potency was inconclusive [decreasing]. With CN(C)S(=O)(=O)c1ccc(NS(=O)(=O)/C=C/c2ccccc2)cc1 the Potency was inconclusive [decreasing]. Cc1ccc(NC(=O)CS(=O)CC(=O)N(CC(=O)NC2CCCC2)c2cc(C)ccc2C)cc1 (stereo not given) was tested, and the Potency was inconclusive [decreasing]. For CCOC(=O)C1C(=O)NC(SCC(=O)Nc2nccs2)=C(C#N)C1c1ccccc1OCC (stereo not given), the Potency was inconclusive [decreasing]. For COCCOC(=O)c1c(C)n(C)c2ccc(OC(=O)C3CC3)cc12, the Potency was inactive: > 76.9 µM. In the case of O=C(Nc1cccc(-c2nc3ccccc3[nH]2)c1)c1ccco1, the Potency is reported as inconclusive [decreasing]. In the case of CC(C)(C)c1ccc(Cn2nnc3c(=O)[nH]c(C4CCN(C(=O)Cc5cccs5)CC4)nc32)cc1, the Potency is reported as inconclusive [decreasing]. With O=C(Nc1nnc(SCC(=O)N2CCCCC2)s1)c1cccs1 the Potency was inconclusive [decreasing]. COc1ccc(-c2cn3c(C)c(C(=O)Nc4cccc(NC(C)=O)c4)sc3n2)cc1 was tested, and the Potency was inconclusive [decreasing]. In the case of COc1cc2[nH]c(=O)n(CCC(=O)N3CCN(c4cccc(C)c4C)CC3)c(=O)c2cc1OC, the Potency is reported as inconclusive [decreasing]. With Cc1ccc(C)c(N2CCN(S(=O)(=O)c3ccc4[nH]c(=O)c(=O)[nH]c4c3)CC2)c1 the Potency was inconclusive [decreasing]. In the case of O=C(c1ccc2nc(-c3ccco3)c(-c3ccco3)nc2c1)N1CCN(c2ccccc2)CC1, the Potency is reported as inactive: > 76.9 µM. For CCC(c1nnc(SCC(=O)NCCc2ccc(Cl)cc2Cl)o1)N(C)C (stereo not given), the Potency was inconclusive [decreasing]. In the case of Nc1cccc(C(=O)Nc2ccc3nc(-c4cccnc4)[nH]c3c2)c1, the Potency is reported as inconclusive [decreasing]. In the case of C=CCNc1oc(-c2ccc(OCC)cc2)nc1C#N, the Potency is reported as inconclusive [increasing]. For O=C1OCc2ccc(NC(=O)C3CCCCC3)cc21, the Potency was inconclusive [decreasing]. For Cc1ccc(C(=O)NCc2ccco2)cc1S(=O)(=O)N1CCCCC1, the Potency was inconclusive [decreasing]. In the case of CCC(C)(C)NC(=O)CN(C(=O)c1snc(C(N)=O)c1N)c1ccc2c(c1)OCO2, the Potency is reported as inactive: > 76.9 µM. In the case of Clc1ccc(CSc2nnc([C@@H]3CCCN3)o2)cc1Cl, the Potency is reported as inconclusive [decreasing]. With O=C(NCc1ccc2c(c1)OCO2)C(c1ccco1)N(C(=O)c1csnn1)c1ccccc1 (stereo not given) the Potency was inactive: > 76.9 µM. For CCN(CC)c1ccc(NC(=O)c2cncc(Br)c2)cc1, the Potency was inconclusive [decreasing]. C=CCn1c(SCc2c(C)noc2C)nnc1C1COc2ccccc2O1 (stereo not given) was tested, and the Potency was inactive: > 76.9 µM. COc1ccc2nc(NC(=O)c3cnccn3)sc2c1 was tested, and the Potency was inactive: > 76.9 µM. In the case of COc1ccc(CN(Cc2ccncc2)C(=O)CCC(=O)O)cc1, the Potency is reported as inconclusive [decreasing]. In the case of CCC(Sc1nnc(C)s1)C(=O)Nc1nccs1 (stereo not given), the Potency is reported as inconclusive [increasing]. In the case of CCOC(=O)c1cccc(NC(=O)CSc2nc3cccnc3n2C)c1, the Potency is reported as inactive: > 76.9 µM. O=c1c2c(nc3nc(Cc4ccccc4)[nH]n13)CCC2 was tested, and the Potency was inactive: > 76.9 µM. With Cn1c(-c2c(N)n(C3CCCC3)c3nc4ccccc4nc23)nc2ccccc21 the Potency was inconclusive [decreasing]. COc1ccc(-c2nnc(SCc3cccc(C#N)c3)o2)cc1 was tested, and the Potency was inconclusive [decreasing]. With CCC(C)(C)n1nnnc1C(c1cc2cccc(C)c2[nH]c1=O)N1CCN(C(=O)c2ccco2)CC1 (stereo not given) the Potency was inconclusive [decreasing]. With Nc1c(C(=O)OCC2CCCO2)c2nc3ccccc3nc2n1C1CCCCC1 (stereo not given) the Potency was inconclusive [decreasing]. In the case of c1ccc2c(c1)nnn2Cc1nnc2sc(-c3ccc4c(c3)OCCO4)nn12, the Potency is reported as inactive: > 76.9 µM. In the case of CCC1CCCCN1C(=O)CSc1nc2c([nH]c3ccccc32)c(=O)n1C (stereo not given), the Potency is reported as inconclusive [decreasing]. For O=C(Nc1cccc(Cl)c1)N(CCN1CCOCC1)Cc1cccc(Cl)c1, the Potency was inconclusive [decreasing]. In the case of Cc1ccc2nsnc2c1S(=O)(=O)N1CCN(CCc2ccccc2)CC1, the Potency is reported as inconclusive [decreasing]. Cc1ccc(-n2nnnc2SCC(=O)NC(=O)Nc2ccc3c(c2)OCCO3)cc1 was tested, and the Potency was inconclusive [decreasing]. In the case of Clc1ccc(CSC2=NCCCN2)cc1Cl, the Potency is reported as inconclusive [decreasing]. N#Cc1ccc2ccn(CC(=O)NC3CCCCC3)c2c1 was tested, and the Potency was inactive: > 76.9 µM. In the case of O=C(Nc1cccc2nsnc12)c1cccs1, the Potency is reported as inconclusive [decreasing]. CCOC(=O)C(C)Sc1nnc(-c2ccccc2O)n1-c1ccc(C)cc1 (stereo not given) was tested, and the Potency was inconclusive [decreasing]. CC(O)CN1C(=O)C(CC(=O)Nc2ccc(Cl)cc2)SC1=Nc1ccccc1 (stereo not given) was tested, and the Potency was inconclusive [decreasing]. For Cc1ccc(Cn2c(=N)n(CC(O)c3ccco3)c3ccccc32)cc1 (stereo not given), the Potency was active: 10.2 µM. With COc1ccc(N(CC(=O)Nc2cc(C)on2)S(=O)(=O)c2cc(C)ccc2C)cc1 the Potency was inconclusive [decreasing]. Cn1ccnc1SCC(=O)c1ccc(Br)cc1 was tested, and the Potency was inconclusive [decreasing]. In the case of COc1cccc(-c2cc(C(=O)Nc3cccc(O)c3)no2)c1, the Potency is reported as active: 14.6 µM. COc1ccc(OC)c(C(=O)CSc2nnnn2C)c1 was tested, and the Potency was inactive: > 76.9 µM. For CC(=O)c1ccc(N2CCN(C(=O)CCCn3c(=S)[nH]c4cc5c(cc4c3=O)OCO5)CC2)cc1, the Potency was inconclusive [decreasing]. For c1ccc(Oc2nc(NCc3ccco3)nc(NCc3ccco3)n2)cc1, the Potency was inactive: > 76.9 µM. In the case of CN=C(Nc1ccc2c(c1)OCO2)SC1CC(=O)N(c2ccccc2)C1=O (stereo not given), the Potency is reported as inconclusive [decreasing]. In the case of O=C(Nc1ccc(S(=O)(=O)NC2CCCCC2)cc1)c1ccc(Br)o1, the Potency is reported as inconclusive [decreasing]. In the case of FC(F)(F)c1cccc(N2CCN(Cc3ccoc3)CC2)c1, the Potency is reported as inconclusive [decreasing]. COC(=O)c1cc2ccc(OC)c(OC)c2c(=O)s1 was tested, and the Potency was inactive: > 76.9 µM. For COc1ccc(NC(C)=O)cc1NC(=O)CN1CCN(C2c3ccccc3-c3ccccc32)CC1, the Potency was inconclusive [decreasing]. With O=C(NCC1CCCO1)c1cccnc1Nc1ccccc1F (stereo not given) the Potency was inconclusive [decreasing]. In the case of CCC(NC(=O)NCCCn1ccnc1)(C(F)(F)F)C(F)(F)F, the Potency is reported as inconclusive [decreasing]. With O=C1c2[nH]nc(-c3ccccc3O)c2C(c2ccccc2F)N1Cc1ccco1 (stereo not given) the Potency was inconclusive [decreasing]. For CSC(=NC1CCCCC1)NS(=O)(=O)c1ccccc1, the Potency was inconclusive [decreasing]. For COc1cccc(CNc2cccc3cccnc23)c1O, the Potency was inactive: > 76.9 µM. In the case of Cc1nc2ccccc2c(=O)n1NC(=O)c1c(O)c2c(n(CC(C)C)c1=O)CCCC2, the Potency is reported as inconclusive [decreasing]. In the case of CC(=O)N1CCN(c2ccc(NC(=O)c3ccccc3Br)cc2Cl)CC1, the Potency is reported as active: 0.332 µM. For NC(=O)CSc1nnc(COc2ccccc2)n1C1CCCCC1, the Potency was inactive: > 76.9 µM. In the case of Cc1cccc(-n2ncc3c(NCc4ccc5c(c4)OCO5)ncnc32)c1, the Potency is reported as inconclusive [increasing]. With CCCc1c(CC)c(=N)c2ccccc2n1C the Potency was inactive: > 76.9 µM. In the case of Cc1ccc(-c2noc(CCC(=O)NCCN3CCOCC3)n2)cc1, the Potency is reported as inconclusive [decreasing]. With CCOC(=O)c1nnn(-c2nonc2-n2cccc2)c1CN1CCC(C)CC1 the Potency was inconclusive [decreasing]. In the case of COc1ccc(N2CCN(C(=O)CCNS(=O)(=O)c3ccc(Br)s3)CC2)cc1, the Potency is reported as inconclusive [decreasing].
